In the antibiotic and cytotoxicity screens of Wong et al. (2023) one finds cytotoxicity call and growth inhibition call data, which are given here for 30 molecules.

One assay has as its system HSkMC. The experiment in a line: cytotoxicity call (relative viability < 0.9). The following applies: 10 µM.
For another assay, the system named is HepG2. The experiment in a line: cytotoxicity call (relative viability < 0.9). The following applies: 10 µM.
The next assay has as its system S. aureus RN4220. The experiment in a line: growth inhibition call (relative growth <= 0.2). As to conditions: 50 µM.

SMILES strings stand for the structures. The list shows a part of the results.

`COc1ccc(NC(=O)Nc2ccc3c(c2)C(=O)N([C@H](C)CO)C[C@H](C)[C@H](CN(C)C(=O)Nc2ccc(C(F)(F)F)cc2)OCCCC[C@@H](C)O3)cc1`: the cytotoxicity call in the assay on HSkMC and in the assay on HepG2 was “inactive” in each case. For the same molecule, the growth inhibition call in the assay on S. aureus RN4220 was “inactive”.

Regarding `C#CC1(O)CCC2C3CCc4cc(OC)ccc4C3CCC21C` (stereo not given), the cytotoxicity call in the assay with HSkMC is “inactive”. The cytotoxicity call in the assay on HepG2 is “active”. Besides, in the assay with S. aureus RN4220, the growth inhibition call is “inactive”.

In the case of `C[C@H]1CN([C@@H](C)CO)C(=O)Cc2cc(NS(=O)(=O)c3ccc(F)cc3)ccc2O[C@H]1CN(C)C(=O)Nc1cccc2ccccc12`, the cytotoxicity call in the assay on HSkMC and in the assay on HepG2 was “inactive” in each case. Also, the growth inhibition call with S. aureus RN4220 is “inactive”.

For `COc1ccccc1NC(=O)N(C)C[C@@H]1Oc2ncc(Br)cc2C(=O)N([C@H](C)CO)C[C@H]1C`, the cytotoxicity call in the assay with HSkMC and in the assay with HepG2 was “inactive” in each case. Besides, in the assay with S. aureus RN4220, the growth inhibition call was “inactive”.

`O=C(C[C@@H]1CC[C@@H]2[C@H](COC[C@H](O)CN2S(=O)(=O)c2cccc(F)c2)O1)NCc1ccncn1`: the cytotoxicity call in the assay with HSkMC and in the assay on HepG2 was “inactive” each time. In the assay on S. aureus RN4220, the growth inhibition call was “inactive”.

For `C[C@H](CO)N1C[C@H](C)[C@@H](CN(C)C(=O)NC2CCCCC2)OCCCC[C@H](C)Oc2ccc(NC(=O)Nc3ccc4c(c3)OCO4)cc2C1=O`, the cytotoxicity call in the assay with HSkMC and in the assay on HepG2 was “inactive” in each case. Besides, the growth inhibition call in the assay with S. aureus RN4220 was “inactive”.

On to `COc1ccc([Si](C)(C)[C@H]2[C@H](CCO)O[C@@]3(C(=O)N(Cc4cccc(N5C(=O)c6cccc7cccc5c67)c4)c4ccccc43)[C@@H]2C)cc1`, for which the cytotoxicity call with HSkMC is “inactive”. Besides, the cytotoxicity call in the assay on HepG2 is “active”. Besides, in the assay with S. aureus RN4220, the growth inhibition call was “inactive”.

Regarding `C[C@H]1CN([C@@H](C)CO)C(=O)c2cc(NC(=O)Cn3cnnn3)ccc2O[C@@H]1CN(C)S(=O)(=O)c1cccs1`, the cytotoxicity call in the assay on HSkMC and with HepG2 was “inactive” throughout. In addition, the growth inhibition call with S. aureus RN4220 was “inactive”.

Consider `C[C@@H]1CN([C@@H](C)CO)C(=O)c2cc(NC(=O)Cc3ccccc3)ccc2O[C@H]1CN(C)S(=O)(=O)c1cn(C)cn1`, for which the cytotoxicity call in the assay with HSkMC and with HepG2 was “inactive” in each case. Further, the growth inhibition call with S. aureus RN4220 was “inactive”.

Consider `Cc1noc(C)c1NC(=O)Nc1ccc2c(c1)C(=O)N([C@H](C)CO)C[C@H](C)[C@H](CN(C)S(C)(=O)=O)O2`, for which the cytotoxicity call in the assay with HSkMC and in the assay with HepG2 was “inactive” throughout. Besides, the growth inhibition call in the assay with S. aureus RN4220 is “inactive”.

As to `C[C@H](O)C#Cc1cnc2c(c1)C(=O)N([C@H](C)CO)C[C@@H](C)[C@H](CN(C)C(=O)CN1CCOCC1)O2`, the cytotoxicity call in the assay with HSkMC and with HepG2 was “inactive” throughout. Also, in the assay on S. aureus RN4220, the growth inhibition call was “inactive”.

Consider `CN1CCNC1=S`, for which the cytotoxicity call in the assay with HSkMC and in the assay on HepG2 was “inactive” throughout. In the assay with S. aureus RN4220, the growth inhibition call is “inactive”.

Regarding `C[C@@H]1CN([C@@H](C)CO)C(=O)Cc2cc(NS(=O)(=O)c3ccc(F)cc3)ccc2O[C@H]1CN(C)S(=O)(=O)c1cn(C)cn1`, the cytotoxicity call with HSkMC and in the assay with HepG2 was “inactive” each time. For the same molecule, the growth inhibition call with S. aureus RN4220 was “inactive”.

For `CCC(=O)N(C)C[C@@H]1Oc2ncc(C#C[C@@H](C)O)cc2C(=O)N([C@H](C)CO)C[C@@H]1C`, the cytotoxicity call in the assay on HSkMC and in the assay with HepG2 was “inactive” throughout. In addition, in the assay with S. aureus RN4220, the growth inhibition call was “inactive”.

As to `O=C(C[C@H]1C=C[C@@H](NC(=O)CN2CCOCC2)[C@@H](CO)O1)NC1CCCCC1`, the cytotoxicity call with HSkMC and in the assay on HepG2 was “inactive” throughout. In the assay with S. aureus RN4220, the growth inhibition call was “inactive”.

For `Nn1cc(Br)c(=O)[nH]c1=O`, the cytotoxicity call with HSkMC and in the assay on HepG2 was “inactive” each time. The growth inhibition call in the assay with S. aureus RN4220 was “inactive”.

In the case of `NC(=O)CN1C(=O)C(=O)c2cc(Cl)ccc21`, the cytotoxicity call with HSkMC and in the assay with HepG2 was “inactive” each time. For the same molecule, in the assay with S. aureus RN4220, the growth inhibition call was “inactive”.

For `COC(=O)C1C2CC3c4[nH]c5cc(OC)ccc5c4CCN3CC2CC(OC(=O)c2cc(OC)c(OC)c(OC)c2)C1OC` (stereo not given), in the assay on HSkMC, the cytotoxicity call is “inactive”. Moreover, the cytotoxicity call in the assay with HepG2 was “active”. For the same molecule, the growth inhibition call with S. aureus RN4220 was “inactive”.

Consider `O=C(CCNc1n[nH]c(=O)[nH]c1=O)N1CCOCC1`, for which, in the assay with HSkMC, the cytotoxicity call was “inactive”. The cytotoxicity call in the assay on HepG2 was “active”. In addition, the growth inhibition call in the assay with S. aureus RN4220 was “inactive”.

As to `CC(C)NC(=O)N(C)C[C@@H]1Oc2cc(-c3ccccc3F)ccc2S(=O)(=O)N([C@H](C)CO)C[C@@H]1C`, the cytotoxicity call in the assay with HSkMC and in the assay with HepG2 was “inactive” in each case. In the assay with S. aureus RN4220, the growth inhibition call is “inactive”.

Regarding `C[C@H](CO)N1C[C@H](C)[C@H](CN(C)S(=O)(=O)c2ccc(Cl)cc2)Oc2ccc(NC(=O)Cn3cnnn3)cc2C1=O`, the cytotoxicity call with HSkMC and in the assay with HepG2 was “inactive” in each case. Moreover, the growth inhibition call with S. aureus RN4220 was “inactive”.

As to `NCc1nnnn1C1CCCCC1`, the cytotoxicity call with HSkMC and in the assay with HepG2 was “inactive” in each case. The growth inhibition call in the assay with S. aureus RN4220 was “inactive”.

Turning to `C[C@@H]1COC(=O)[C@H](Cc2ccc(F)cc2)CC=CC[C@H](CC(=O)N(CCO)Cc2ccccc2)C(=O)N1`, the cytotoxicity call in the assay on HSkMC (human skeletal muscle cells) and in the assay on HepG2 was “inactive” each time. Further, the growth inhibition call in the assay with S. aureus RN4220 was “inactive”.

As to `O=C1CN(S(=O)(=O)Cc2ccccc2)C[C@H]2[C@H](c3ccc(C#Cc4ccc(F)cc4)cc3)[C@@H](CO)N12`, in the assay with HSkMC, the cytotoxicity call is “active”. In the assay on HepG2, the cytotoxicity call is “inactive”. In the assay on S. aureus RN4220, the growth inhibition call was “inactive”.

As to `C[C@H](CO)N1C[C@H](C)[C@@H](CN(C)C(=O)C2CCCCC2)Oc2cc(C#Cc3ccncc3)ccc2S1(=O)=O`, the cytotoxicity call with HSkMC was “inactive”. In the assay on HepG2, the cytotoxicity call was “active”. Further, the growth inhibition call in the assay on S. aureus RN4220 was “inactive”.

Turning to `CCN(CC)CC(=O)N1c2ccccc2CCc2ccc(NC(=O)c3cc(OC)c(OC)c(OC)c3)cc21`, the cytotoxicity call in the assay with HSkMC and in the assay with HepG2 was “inactive” each time. Further, the growth inhibition call with S. aureus RN4220 was “inactive”.

Regarding `CC(C)NC(=O)N(C)C[C@H]1Oc2ccc(NC(=O)CCN3CCOCC3)cc2CC(=O)N([C@H](C)CO)C[C@H]1C`, the cytotoxicity call with HSkMC and with HepG2 was “inactive” throughout. Besides, the growth inhibition call with S. aureus RN4220 was “inactive”.

Take `OCc1ccccc1OC1OC(CO)C(O)C(O)C1O` (stereo not given): the cytotoxicity call in the assay with HSkMC and in the assay on HepG2 was “inactive” each time. Moreover, the growth inhibition call in the assay with S. aureus RN4220 is “inactive”.

Turning to `O=C(O)CSCC(=O)N1CCCCC1`, the cytotoxicity call in the assay with HSkMC and in the assay with HepG2 was “inactive” each time. Further, the growth inhibition call in the assay on S. aureus RN4220 was “inactive”.

As to `C[C@H]1CN([C@@H](C)CO)C(=O)c2cc(NC(=O)CCN3CCOCC3)ccc2O[C@H]1CN(C)C(=O)Nc1ccc2c(c1)OCO2`, the cytotoxicity call with HSkMC and with HepG2 was “inactive” each time. In the assay on S. aureus RN4220, the growth inhibition call was “inactive”.
